Laboratory results as given in PubChem BioAssay AID504845 (National Center for Advancing Translational Sciences (NCATS), 2011).
Out of some 390,000 compounds screened, about 150 (0.038%) were called active. This list was built around the results that the source calls inconclusive (neither active nor inactive); the mix of calls is not that of the screen. The call rests on the fitted dose curve; in most records, active means well fitted inhibition curve with a large enough effect; inconclusive means small, poorly fitted or top-dose-only effect; inactive means no such curve, though single readings can be large or run the other way. Potencies of inconclusive entries are doubtful fits and often do not repeat.

These molecules were tested against Regulator of G-protein signaling 4 (Homo sapiens) (UniProt P49798) (assay: Inhibitors of Regulator of G Protein Signaling (RGS) 4: qHTS). Conditions: Transcreener GDP fluorescence polarization, RGS4-accelerated GTP hydrolysis; series mostly up to 114 µM; activity change, negative = inhibition: at the top concentration.
Summary of the method: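 MLSMR compounds (23 nl, pin-transferred) preincubated 10 min at room temperature with a 500nM (2x) first reagent, then RGS4 at 900nM (2x) plus Transcreener GDP mix added; fluorescence polarization (620/688 nm) read before and after 90 min at 30 °C.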
Further: nearly all actives have a fitted effect of over 75% in size.
On the % scale 0 is the no-effect control and ±100 the full control effect; potency means the concentration at half of the fitted maximal effect; tags describe the fitted curve by direction and shape.

UniProt P49798, sequence (P49798 whole entry, looked up): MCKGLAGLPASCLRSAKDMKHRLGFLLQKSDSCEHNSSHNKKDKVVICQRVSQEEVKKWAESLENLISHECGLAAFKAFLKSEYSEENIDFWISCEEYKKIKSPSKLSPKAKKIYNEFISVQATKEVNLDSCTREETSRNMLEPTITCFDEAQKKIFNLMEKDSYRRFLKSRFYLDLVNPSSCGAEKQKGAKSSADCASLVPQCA

| Compound | Potency | activity change, negative = inhibition |
| --- | --- | --- |
| CN1C(=O)/C(=C/c2ccc(OCc3ccc(C(=O)O)cc3)c(Cl)c2)NC1=S | inconclusive: 56.2 µM [inhibitor, partial curve, poor fit] |  |
| Cc1cc(NC(=O)CSc2nnc(CNC(=O)c3ccc(C(C)(C)C)cc3)o2)no1 | inconclusive: 89.1 µM [inhibitor, single point] |  |
| COc1ccc(-c2n[nH]c(=S)n2-c2ccc(C)cc2C)cc1 | inconclusive: 100 µM [inhibitor, partial curve, poor fit] |  |
| O=C1CCN(C(=O)CSc2ccc(Cl)cc2)N1 | inconclusive: 56.2 µM [inhibitor, partial curve, poor fit] |  |
| Cc1ccc(C)c(-n2c(Cc3cccs3)n[nH]c2=S)c1 |  | inactive: -28.8% |
| CC(=O)Nc1ccc(C(=S)NCCCO)cc1 | inconclusive: 44.7 µM [inhibitor, partial curve, poor fit] |  |
| CCc1ccc(NC(=O)/C(C#N)=C/c2ccncc2)cc1 | inconclusive: 89.1 µM [inhibitor, single point] |  |
| Cc1cc(NC(=O)CN2CCOCC2)n(-c2nc3ccccc3s2)n1 |  | inactive: -2.87% |
| COC(=O)c1c(-c2cccs2)csc1NC(=O)COc1ccc(C(C)(C)C)cc1 | inconclusive: 79.4 µM [inhibitor, partial curve, poor fit] |  |
| CCOC(=O)C1=C(C)NC2=C(C(=O)c3ccccc32)C1c1cccc2ccccc12 (configuration not stated) | inconclusive: 44.7 µM [inhibitor, partial curve, poor fit] |  |
| C/C(=N/NC(=O)c1ccc(Br)o1)c1cccc(NC(=O)c2ccc(C)o2)c1 | inconclusive: 79.4 µM [inhibitor, partial curve, poor fit] |  |
| CC(NC(=O)c1ccc2c(c1)CCN2S(=O)(=O)c1ccc(Cl)cc1)c1ccccc1 (configuration not stated) |  | inactive: -11.6% |
| COc1ccc(NC(=O)COc2ccc(-c3nn(C)c(=O)c4ccccc34)cc2)cc1 | inconclusive: 50.1 µM [inhibitor, single point] |  |
| Cc1ccc(CNC(=O)c2ccc(Cn3nc(C)c(Cl)c3C)o2)cc1 | inconclusive: 100 µM [inhibitor, single point] |  |
| Cn1nc(-c2ccc(C(=O)NCCO)cc2)c2ccccc2c1=O |  | inactive: 14.1% |
| Cc1nc(C)n(CC(O)COc2ccc3ccccc3c2)n1 (configuration not stated) |  | inactive: -12.5% |
| Oc1ccc2c(c1)oc1cc(O)ccc12 |  | inactive: -7.59% |
| O=C(CC(Nc1ccc(Cl)cc1)C(=O)O)c1ccccc1 (configuration not stated) | inconclusive: 70.8 µM [inhibitor, partial curve, poor fit] |  |
| COc1c(C)cccc1C(=O)Nc1cccc2ccc(C)nc12 |  | inactive: 6.82% |
| COC(=O)Cn1cc(/C=N/NC(=O)COc2cccc3cccnc23)c2ccccc21 | inconclusive: 31.6 µM [inhibitor, full curve, poor fit] |  |
| O=C1OC(NC(=O)c2ccccc2)C(n2cc(CO)nn2)=C1Cl (configuration not stated) | inconclusive: 79.4 µM [inhibitor, partial curve, poor fit] |  |
| CCCCN(C)C(=O)CS(=O)(=O)Cc1nc(-c2cccc(OC)c2)oc1C |  | inactive: 1.75% |
| C=CCn1c(SCC(=O)NCCCC(=O)OCC)nc2scc(-c3ccco3)c2c1=O | inconclusive: 50.1 µM [inhibitor, partial curve, poor fit] |  |

| Compound | Potency | activity change, negative = inhibition |
| --- | --- | --- |
| C[C@H](CCC(=O)O)[C@H]1CC[C@H]2[C@@H]3CC[C@@H]4C[C@H](O)CC[C@]4(C)[C@H]3CC[C@]12C |  | inactive: 14.1% |
| Cc1ccc(Cl)cc1N1CCN(C(=O)c2ccc3c(c2)N(Cc2ccc(F)cc2)CCS3)CC1 |  | inactive: 1.45% |
| O=C(CSc1ccc(-c2ccccn2)nn1)N1CCCC1 | inconclusive: 50.1 µM [inhibitor, partial curve, poor fit] |  |
| O=C(Nc1cc(S(=O)(=O)Nc2ccc(Cl)cc2)ccc1O)c1ccc(F)cc1F | inconclusive: 79.4 µM [inhibitor, single point] |  |
| CC(=O)N(c1ccccc1)C1CCCC1 |  | inactive: 19.6% |
| COc1cccc(Nc2nc(-c3sc(N)nc3C)cs2)c1 | inconclusive: 56.2 µM [inhibitor, partial curve, poor fit] |  |
| CCOc1ccc(C(=O)Nc2ccc3[nH]ncc3c2)cc1 |  | inactive: -18.8% |
| CCOc1ccccc1NC(=O)C1=C(C)NC(=S)NC1c1cccs1 (configuration not stated) | inconclusive: 17.8 µM [inhibitor, full curve, poor fit] |  |
| COc1cc(OC)c(OC)cc1CN1CCN(S(=O)(=O)c2ccc(NC(C)=O)cc2)CC1 | inconclusive: 112 µM [inhibitor, partial curve, poor fit] |  |
| CC(C)CC(NC(N)=O)C(=O)OCC(=O)Nc1ccc(OC(F)F)cc1 (configuration not stated) | inconclusive: 50.1 µM [inhibitor, partial curve, poor fit] |  |
| COc1cc(C2NC(=O)c3c(sc4c3CCN(C)C4)N2)cc(OC)c1OC (configuration not stated) | inconclusive: 44.7 µM [inhibitor, partial curve, poor fit] |  |
| Nc1c(C(=O)N/N=C/c2ccccc2Cl)oc2nc(-c3ccccc3)cc(-c3ccco3)c12 |  | inactive: -6.46% |
| FC(F)(F)c1cc(-c2ccccc2)nc(N2CCCCC2)n1 |  | inactive: 17.1% |
| CCSc1nc(-c2ccco2)ccc1C#N | inconclusive: 44.7 µM [inhibitor, partial curve, poor fit] |  |
| CCc1cc(C(=O)NC2CCCN(Cc3ccccc3F)C2)n(C)n1 (configuration not stated) |  | inactive: -4.6% |
| CC1CSc2nc3sc4c(c3c(=O)n21)CCCC4 (configuration not stated) | inconclusive: 89.1 µM [inhibitor, single point] |  |
| O=C(Nc1ncc2c(n1)-c1ccccc1CC2)c1cccc(Cl)c1 |  | inactive: 4.36% |
| Cc1cccn2c(=O)c3cc(S(=O)(=O)c4ccc(F)cc4)c(=N)n(Cc4ccco4)c3nc12 | inconclusive: 100 µM [inhibitor, single point] |  |
| CC(C)CCN1CCN(Cc2cccc(C(F)(F)F)c2)CC1CCO (configuration not stated) |  | inactive: -9.51% |
| COc1cc(OC)c(Nc2nc3ccc(C(=O)c4ccccc4)cc3n3c(C)nnc23)cc1Cl | inconclusive: 100 µM [inhibitor, partial curve, poor fit] |  |
| COc1ccc(S(=O)(=O)NCCc2csc(-c3ccc(F)cc3)n2)cc1F | inconclusive: 79.4 µM [inhibitor, partial curve, poor fit] |  |
| CCN(CC)c1ccc(C(=C2C=CC(=[N+](CC)CC)C=C2)c2ccc(S(=O)(=O)O)cc2S(=O)(=O)[O-])cc1 | inconclusive: 44.7 µM [inhibitor, partial curve, poor fit] |  |
| Cc1ccc(CN(CC(O)COc2cccc3[nH]cc(C)c23)C(C)(C)C)cc1 (configuration not stated) |  | inactive: -2.73% |

| Compound | Potency | activity change, negative = inhibition |
| --- | --- | --- |
| COC(=O)c1cc(=O)nc2sc3ccccc3n12 |  | inactive: -6.09% |
| Cc1ccccc1N1C(S)=C(C#N)C(=O)NC1c1cccs1 (configuration not stated) | inconclusive: 79.4 µM [inhibitor, partial curve, poor fit] |  |
| CCSC1=NC(C)(C)C=C(/C=C/c2ccc(Cl)cc2Cl)N1 | inconclusive: 50.1 µM [inhibitor, partial curve, poor fit] |  |
| CCN1C(=O)/C(=C\C(=O)c2cccs2)c2cc(Br)ccc21 | inconclusive: 44.7 µM [inhibitor, partial curve, poor fit] |  |
| COc1ccccc1CNc1nc(C)c(C(=O)N(C)C)s1 | inconclusive: 79.4 µM [inhibitor, partial curve, poor fit] |  |
| Cc1ccccc1C(=O)Nc1cccc(NC(=O)c2ccc(-c3ccc(Br)cc3)o2)c1 |  | inactive: -19% |
| CC1(C)CCC2=C(O1)c1ccccc1C(=O)C2=O | active: 15 µM |  |
| CCC(=O)NC(c1cccs1)c1cc(Cl)c2cccnc2c1O (configuration not stated) |  | inactive: -8.15% |
| CC[n+]1ccc2cc(OC)c(OC)cc2c1Cc1ccc(OC)c(OC)c1 | inconclusive: 79.4 µM [inhibitor, partial curve, poor fit] |  |
| O=C(Nc1cccc(Cl)c1)c1cc2c(=O)[nH]c3ccccc3c2s1 |  | inactive: -15.5% |
| CCCCC(CC)C(=O)Nc1ccc(C)c(O)c1 (configuration not stated) | inconclusive: 44.7 µM [inhibitor, partial curve, poor fit] |  |
| O=C(/C=C/c1ccc2c(c1)OCO2)c1ccccn1 | inconclusive: 79.4 µM [inhibitor, partial curve, poor fit] |  |
| CC(C)(C)NS(=O)(=O)c1cc(C(=O)Nc2sccc2C#N)ccc1Cl | inconclusive: 79.4 µM [inhibitor, partial curve, poor fit] |  |
| O=C(CSc1ncn[nH]1)Nc1cccc2ccccc12 | inconclusive: 89.1 µM [inhibitor, single point] |  |
| Cc1ccc(C(=O)Nc2ccccc2SCC2CSc3nc4ccccc4c(=O)n32)cc1 (configuration not stated) | inconclusive: 89.1 µM [inhibitor, single point] |  |
| Cc1csc(NC(=O)CSc2nnc(NC(=O)NC(C)(C)C)s2)n1 | inconclusive: 89.1 µM [inhibitor, partial curve, poor fit] |  |
| O=C(NC(=S)Nc1cccc(S(=O)(=O)NC2=NCCC2)c1)c1cc(-c2ccco2)nc2ccccc12 | inconclusive: 56.2 µM [inhibitor, partial curve, poor fit] |  |
| CCCC1Nc2ccc(C(=O)O)cc2C2C=CCC12 (configuration not stated) | inconclusive: 50.1 µM [inhibitor, partial curve, poor fit] |  |
| COc1cc(CO)cc(Br)c1OCC(=O)O | inconclusive: 89.1 µM [inhibitor, partial curve, poor fit] |  |
| CCN(CC)c1ccc(NS(=O)(=O)c2cc3[nH]c(=O)c(=O)[nH]c3cc2C)c(C)c1 | inconclusive: 39.8 µM [inhibitor, partial curve, poor fit] |  |
| CC1=C(c2ccc(C)cc2)S(=O)(=O)NC1=NCCCN1CCN(c2ccc(F)cc2)CC1 |  | inactive: -3.78% |
